According to patent EP2818471A1, “Nitrogen bicyclic compounds as inhibitors for Scyl1 and Grk5” (Max-Planck-Gesellschaft zur Förderung der Wissenschaften …, priority 2013, dated 2014):
Where two headings read alike, the source gives them in different places.

Columns and labels:
beta-TC6 cells [1] = assay: 2-NBDG glucose uptake by flow cytometry; conditions: Mus musculus, Beta-TC6, 1 h, read-out: Ratio of 2-NBDG uptake
beta-TC6 cells [2] = assay: Insulin HTRF assay, relative activity Ar normalized to sunitinib; type: cell-based; conditions: Mus musculus, normalized to positive control sunitinib (5 µM = 100%), Table 10
Description: For further screening of compounds derived from compounds described above for their ability to regulate insulin release an insulin HTRF® (Homogeneous Time-Resolved Fluorescence; Cisbio International, France) was used. This assay is based on two antibodies against insulin binding to different epitopes of insulin. One of these antibodies is coupled to Europium (Ab-Eu-Cryptate) and the other one to the fluorophore XL665 (Ab-XL665). Is insulin secreted into the supernatant of cell culture both antibodies can bind to insulin and come therefore into close proximity which allows upon excitation that energy transfer between (FRET) the long-life fluorescent donor Europium (cryptate) and the acceptors XL665. FRET increases proportionally with insulin concentration.
The automated assay protocol is as follows: • On day 1 15k beta-TC6 cells per well were seeded for 24 or 48 h in 50 µl complete medium. On day 2 or respective on day 3 the medium is removed and cells are washed with 60 µl 1xPBS and 20 µl induction buffer is added using BioTek washer. Subsequently, 10 µl Sunitininb (5 µM f.c.) or the test compound in induction buffer; 0.5% f.c. DMSO (CyBi-well) is transferred to the cells. The cells are then incubated at 37°C for 2, 3, 4h.
The HTRF assay is carried out using Greiner 384-well 784075 assay plates. First 10 µl supernatant is transferred from the cell plates in HTRF plates (CyBi-well). 10 µl of 0, 1, 2, and 4 ng/ml Insulin standard controls in assay medium is used as a control. To each well 10 µl of combined 1:25 Ab-XL665 (Acc) and 1:20 Ab-Eu-Cryptate (WellMate) are added and incubated for 120 min at RT in the dark. Finally HTRF is measured on ViewLux ultra high throughput microplate imager (PerkinElmer).
The evaluation software DataFactoty derives relative activities Ar according to the following equation: Ar = (V-R(0%control))/(R(100%control) -R(0%control)) × 100 [formula] […]
The activity of the compounds was classified according to their Ar (relative activity) into the following ranges: Ar ≥ 100% + + + +; 50% ≤ Ar < 100% + + +; 20% ≤ Ar < 50% + +; 10% < Ar < 20% + [formula] Table 10. Ar (relative activity) values of inventive compounds

beta-TC6 cells [3] = assay: Insulin release in high glucose medium, rat/mouse insulin ELISA; type: cell-based
beta-TC6 cells [4] = assay: as above; type: cell-based; remark: listed apart in the source
Description: Cells were cultured overnight, washed with PBS and then treated with 5 µM of test compounds as well as non-inhibitor controls for 2 h in a high glucose (4.5 g/L) DMEM at 37°C and 5 % (v/v) CO2. Release of insulin was detected using a rat/mouse insulin ELISA.
After incubation, the supernatant of the beta-TC6 insulinoma cells was diluted 1:20, whereas the supernatants of the RIN-T2B-5AH were diluted 1:10. The insulin release was measured with rat/mouse insulin ELISA (Merck Millipore Darmstadt, Cat. # EZRMI-13K) by following the manufacture's protocol. The enzyme activity of the horseradish peroxidase of the immobilized biotinylated antibodies was monitored spectrophotometrically by the increased absorbency at 490 nm, and corrected by the absorbency at 610 nm.
Afterwards, the supernatant was analyzed for insulin using the rat/mouse insulin ELISA (Merck Millipore Darmstadt, Cat. # EZRMI-13K) by following the manufacture's protocol..
Cells were treated for 2 h in a high glucose (4.5 g/L) DMEM media at 37°C and 5 % (v/v) CO2. Insulin release was analyzed using the rat/mouse insulin ELISA.

C2C12 cells = assay: 2-NBDG glucose uptake by flow cytometry; conditions: for fold induction at 5 µM: Mus musculus, C2C12, 1 h, read-out: Ratio of 2-NBDG uptake
beta-TC6 = assay: MTT cytotoxicity assay (cell viability and proliferation); type: cell-based, mouse; conditions: for proliferation, raw data intensity (RDI): beta-TC6, 10 µM, 72 h treatment, MTT
Description: Using a MTT approach, we determined the effect on cell viability and proliferation of beta-TC6 and C2C12 cells to display potential cytotoxicity of the compounds according to the invention in vitro after a 72 h treatment.
For MTT (3-(4,5-dimethylthiazol-2-yl)-2,5-diphenyl tetrazolium bromide) transformation, 1/5 of total volume of a 5 mg/mL MTT stock solution was added to the cells as well as control wells and incubated at 37 °C, 5 % CO2 (v/v) for 1 h. Then 1/2 of total volume of MTT-stop solution was added and plates were incubated overnight in the dark at 25 °C. The optical density (OD) was measured using a multiwell spectrophotometer at a wavelength of 570 nm.

full length Grk5 = biological target: T1, full length Grk5 (Homo sapiens, UniProt P34947); assay: GRK5 kinase activity assay (ADP Glo Kinase Assay); type: biochemical; conditions: Table 5
T1 construct: 2 µl 6/2 fold concentrated full length Grk5 (Millipore, #14-714) in reaction buffer is added to each well; purchased Millipore 14-714
T1 sequence (P34947 whole entry): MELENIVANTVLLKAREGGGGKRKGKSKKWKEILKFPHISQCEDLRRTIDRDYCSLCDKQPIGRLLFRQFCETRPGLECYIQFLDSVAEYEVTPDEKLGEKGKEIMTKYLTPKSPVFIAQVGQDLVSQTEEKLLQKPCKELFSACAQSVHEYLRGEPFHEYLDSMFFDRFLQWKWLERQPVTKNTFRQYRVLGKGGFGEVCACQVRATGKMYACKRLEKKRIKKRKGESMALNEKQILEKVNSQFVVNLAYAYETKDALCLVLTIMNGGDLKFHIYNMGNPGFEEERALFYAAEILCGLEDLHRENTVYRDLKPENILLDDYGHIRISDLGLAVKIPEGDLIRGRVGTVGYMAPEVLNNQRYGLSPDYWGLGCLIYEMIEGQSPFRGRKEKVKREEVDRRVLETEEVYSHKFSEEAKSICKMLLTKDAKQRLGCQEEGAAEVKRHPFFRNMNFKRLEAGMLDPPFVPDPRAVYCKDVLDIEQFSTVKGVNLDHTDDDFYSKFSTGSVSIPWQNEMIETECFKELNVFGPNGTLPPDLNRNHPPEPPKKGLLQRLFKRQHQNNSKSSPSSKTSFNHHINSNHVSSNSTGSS
Description: Increasing concentrations of GRK5 are incubated together with 100 µM ATP in the absence and presence of 10 µM casein in a reaction buffer. Within this incubation non-phosphorylated casein is converted into phosphorylated casein and ATP is converted into ADP. Thereafter nonconverted ATP is digested into AMP by addition of the ADP-Glo™Reagent. Subsequently the ADP that is produced by GRK5 activity is phosphorylated back to ATP by addition of Promega Kinase Detection Reagent. These ATP levels serve as measure for the GRK5 activity and are quantified by a luciferase/luciferin reaction.
Km(ATP) was determined by measuring the GRK5 activity at increasing ATP concentrations.
The reaction buffer used was composed of: 20 mM MES pH 6.0, 1 mM DTT, 10 mM MgCl2, 0.01 % Tween20 and the reaction volume was 6µl.
Firstly 4 µl 6/4 fold concentrated substrate and 6/4 fold concentrated ATP in 1 fold concentrated reaction buffer are added to each well of the assay plate. Subsequently 67 nl 1000 fold concentrated test compound in 100 % DMSO are added to each well except to C- and C+ wells using pin tool. Then 67 nl 100 % DMSO are pipetted to C- (no kinase, no compound) and C+ (no compound) wells using pin-tool and 2 µl reaction buffer are added to C- wells. […] After incubation for 120 min. at room temperature 6 µl ADP-Glo™ Reagent (ADP Glo™ Kinase Assay Kit: Promega, V9101) are added to each well to stop the kinase reaction and deplete the unconsumed ATP. After a second incubation for 40 min. at room temperature 12 µl of Kinase Detection Reagent are added to convert ADP to ATP and start luciferase / luciferin reaction for detection of ATP. […] Finally, after incubation for 40 min at room temperature the luminescence intensity was measured.
The maximal compound assay concentration was set to 100 µM, representing the compound assay concentration used in the primary screen.

beta-TC6 cell system = assay: Comparison of insulin release with commercially available inhibitors, mouse/rat insulin ELISA; type: cell-based; conditions: for activation at 5 µM: Mus musculus, Beta-TC6, 2 h, DMSO = 0, Table 9
Description: Based on literature references, several commercially available inhibitors were compared with compounds according to the invention. […] Cells were cultured for 24 h before treated with the inventive compounds and control inhibitors for 2 h at 37 °C and 5 % (v/v) CO2. Insulin in the supernatant was detected by mouse/rat insulin ELISA.

[5] = Beta-TC6, 2 µM, 2 h, high glucose (4.5 g/L), 0 µM = 1, Table 3, read-out: Release of insulin
[6] = Beta-TC6, 10 µM, 2 h, high glucose (4.5 g/L), 0 µM = 1, Table 3, read-out: Release of insulin
[7] = Beta-TC6, 5 µM, 2 h, high glucose (4.5 g/L), 0 µM = 1, Table 3, read-out: Release of insulin
[8] = Beta-TC6, 2 h, 5 µM, 2 h, high glucose (4.5 g/L) DMEM, Example 4, Figure 2, read-out: increase of insulin release
[9] = Beta-TC6, 2 h, read-out: Release of insulin

## CN(C)CCNC(=O)c1cccc(-c2cnc3ccc(-c4cccc(NS(C)(=O)=O)c4)nn23)c1 [compound 14, N-(2-dimethylaminoethyl)-3-[6-[3-(methanesulfonamido)phenyl]imidazo[1,2-b]pyridazin-3-yl]benzamide]
beta-TC6 cells [1]
  fold induction at 5 µM: 1.83
beta-TC6 cells [2]
  Emax: 20 to 50%
beta-TC6 cells [3]; [5]
  fold induction at 2 µM: 0.97
beta-TC6 cells [3]; [6]
  fold induction at 10 µM: 1.82
beta-TC6 cells [4]; [7]
  fold induction at 5 µM: 1.29
C2C12 cells
  fold induction at 5 µM: 2.09
beta-TC6
  proliferation, raw data intensity (RDI): 1.35 ± 0.038 RDI

## Clc1cccc(-c2nnc3ccc(-c4ccoc4)cn23)c1 [compound 201, 3-(3-chlorophenyl)-6-(3-furyl)-[1,2,4]triazolo[4,3-a]pyridine]
beta-TC6 cells [2]
  Emax: 50 to 100%
Full length Grk5
  IC50: < 5 µM

## FC(F)(F)Oc1ccc(-c2cccc(N3CCN(c4ccccn4)CC3)n2)cc1 [Cpd c3, reference compound]
beta-TC6 cells [1]
  fold induction at 5 µM: 1.26
beta-TC6 cell system
  activation at 5 µM: -8.54%
beta-TC6 cells [4]; [8]
  activation at 5 µM: -11.7 ± 0.35%
C2C12 cells
  fold induction at 5 µM: 0.914

## CC(=O)Nc1cccc(-c2ccc3ncc(-c4cccc(NC(C)=O)c4)n3n2)c1 [compound 12, N-[3-[3-(3-acetamidophenyl)imidazo[1,2-b]pyridazin-6-yl]phenyl]acetamide]
beta-TC6 cells [1]
  fold induction at 5 µM: 2.17
beta-TC6 cells [2]
  Emax: 20 to 50%
beta-TC6 cell system
  activation at 5 µM: 24.4%
beta-TC6 cells [3]; [9]
  fold induction at 2 µM: 1.43
  fold induction at 10 µM: 2.16
beta-TC6 cells [4]; [9]
  fold induction at 5 µM: 1.34
beta-TC6 cells [4]; Beta-TC6, 2 h, read-out: increase of insulin release
  activation at 5 µM: 30.5 ± 4.5%
C2C12 cells
  fold induction at 5 µM: 2.1
beta-TC6; beta-TC6, 72 h treatment, concentrations up to 10 µM
  toxic effect: no toxic effect at all

## Cn1cc(-c2ccc3ncc(-c4cccs4)n3n2)cn1 [compound 3, 6-(1-methylpyrazol-4-yl)-3-(2-thienyl)imidazo[1,2-b]pyridazine]
beta-TC6 cells [2]
  Emax: 20 to 50%
beta-TC6 cell system
  activation at 5 µM: 14.4%
C2C12 cells; C2C12, 1 h compound treatment, Figure 10
  uptake of 2-NBDG compared with negative control background: significantly increased uptake of 2-NBDG

## COc1ccc(-c2ccc3ncc(-c4ccncc4)n3n2)cc1OC [compound 11, 6-(3,4-dimethoxyphenyl)-3-(4-pyridyl)imidazo[1,2-b]pyridazine]
beta-TC6 cells [1]
  fold induction at 5 µM: 2.17
beta-TC6 cells [2]
  Emax: 20 to 50%
beta-TC6 cell system; 5µM, 2 h, DMSO = 0, Table 9
  Insulin Release [%]: 53.86%
beta-TC6 cell system
  activation at 5 µM: 53.9 ± 17%
beta-TC6 cells [3]; [5]
  fold induction at 2 µM: 1.33
beta-TC6 cells [3]; [6]
  fold induction at 10 µM: 2.31
beta-TC6 cells [4]; [7]
  fold induction at 5 µM: 1.91
beta-TC6 cells [4]; [8]
  activation at 5 µM: 42.7 ± 10.4%
C2C12 cells
  fold induction at 5 µM: 2.05
beta-TC6
  proliferation, raw data intensity (RDI): 1.17 ± 0.096 RDI

## CNc1cc(-c2ccc(N)cc2)ncn1 [Cpd c4, reference compound]
beta-TC6 cells [1]
  fold induction at 5 µM: 1.38
beta-TC6 cells [4]; [8]
  activation at 5 µM: 3.69 ± 0.43%
C2C12 cells
  fold induction at 5 µM: 0.876

## CC(=O)c1cccc(-c2cnc3cnc(-c4cccs4)cn23)c1 [compound 412, 1-[3-[6-(2-thienyl)imidazo[1,2-a]pyrazin-3-yl]phenyl]ethanone]
beta-TC6 cells [2]
  Emax: 50 to 100%
Full length Grk5
  IC50: 5 to 20 µM

## c1cnc2ccc(-c3ccc4nnc(-c5cscn5)n4c3)cc2c1 [compound 235, 4-[6-(6-quinolyl)-[1,2,4]triazolo[4,3-a]pyridin-3-yl]thiazole]
beta-TC6 cells [2]
  Emax: 50 to 100%
Full length Grk5
  IC50: 5 to 20 µM

## COc1cc(-c2cnc3ccc(-c4cc(OC)c(OC)c(OC)c4)nn23)ccc1O [compound 13, 2-methoxy-4-[6-(3,4,5-trimethoxyphenyl)imidazo[1,2-b]pyridazin-3-yl]phenol]
beta-TC6 cells [1]
  fold induction at 5 µM: 2.61
beta-TC6 cells [2]
  Emax: 20 to 50%
beta-TC6 cell system
  activation at 5 µM: 91.6%
beta-TC6 cells [3]; [5]
  fold induction at 2 µM: 1
beta-TC6 cells [3]; [6]
  fold induction at 10 µM: 1.37
beta-TC6 cells [4]; [7]
  fold induction at 5 µM: 1.39
C2C12 cells
  fold induction at 5 µM: 2.4

## COc1cc(-c2ccc3ncc(-c4cccc(C(=O)NCCN(C)C)c4)n3n2)ccc1O [compound 4, N-(2-dimethylaminoethyl)-3-[6-(4-hydroxy-3-methoxy-phenyl)imidazo[1,2-b]pyridazin-3-yl]benzamide]
beta-TC6 cells [2]
  Emax: 10 to 20%
beta-TC6 cell system
  activation at 5 µM: 30.1%
